This note sets out measurements from the RNAGym collection of RNA variant scans (doi:10.7554/elife.90254).

The source gives no read counts; variants with many changes may rest on few reads.

First the molecules themselves.
B1: LINE1-mini (parent)
chain: GGCAGAGCUCAACACAGCGUGGCAAAGUGGCUGUGGCUAGACUGCC

Variants of B1 are the subject of this data set. The data set can be described thus: self-cleavage, relative activity (ratio to wild type); higher = more cleavage; in vitro, sequencing; the parent is a self-cleaving ribozyme.
GGUAGAGCUCAACACACCGUGGCAAAGUGGCUGUGGUUCGACUGCC [C3U G17C C37U A39C]: the self-cleavage stood at 0.1. The value for GGUAGAGCUCAACACAGCGUAGCAUAGUGGCUGUGCCCAGAUUGCC [C3U G21A A25U G36C U38C C42U] was 0.05; that for GGUAGAUCUCAAUCCAGCGUGGCAAAGUGACGUUGGCUAGACUGCC [C3U G7U C13U A14C G30A U32G G33U] was 0.06; that for GGUAGACCUCAUCACAGCGUGGCAAAGUGGCUGUGGCUAGACUGCC [C3U G7C A12U] was 0.09. Turning to GGUAGAUAACAACACAGCGUGGUUAAGUGGCUGUGGCUAGACUGCU [C3U G7U C8A U9A C23U A24U C46U], the self-cleavage came to 0.2.

For the variant GGUAGAGCUCAACACAGCGUUGCAAAGUGGCUGUGGUUAGACUGCC [C3U G21U C37U], the self-cleavage was found to be 0.02. Then GGUAGACCUCAACACAGCGUGGCAAAGUGGCUGUGGCUAGACUACC [C3U G7C G44A], with 0.05.

In the case of GGUAGACCUCAACACAUCGUGGCAAAGUGGCUGUGGCUAGACUGCC [C3U G7C G17U], the self-cleavage is 0.08. Then GGUAGAGCUCAACACAGCGUAGCAAAGUGGAUGUGGCUAGACUGCC [C3U G21A C31A], with 0.04; and GGUAGACCUCAAAACAGCUUGGCAAUGUGGCUGUAGCUAGACUGCC [C3U G7C C13A G19U A26U G35A], with 0.06. Take GGUAGAGCUCAACACAGCGUGACAAAAUGGCUGUGGCUAGACCGCC [C3U G22A G27A U43C]: the self-cleavage came out at 0.01.

Turning to GGUAGAGCUCAACACAGCGUUGCAAAGUGGCUGUGGCUUGACUGAC [C3U G21U A39U C45A], the self-cleavage was determined as 0.29. On to GGUAGAGCUCAACACAGCAUGGCAAUGUGGCUGUGGCUAGACUGCC [C3U G19A A26U], for which the self-cleavage was 0.24. Then GGUAGAGCUCAACACAGCGUGGCAAAAUGGCUGUGGCUAGACUUCC [C3U G27A G44U], with 0.37; and GGUAGAACUCAACACAGCGUGACAAAGUGGCUGUGGCUAGACUGCC [C3U G7A G22A], with 0.04; and GGUAGAGCUCAACACAUCGUCGCAAAGUGGCUGUGGCUAGACUGCC [C3U G17U G21C], with 0.24. As to GGUAGAUUUCAACUCCGCGUGUCAAAGUGGCUGUGGCUAGACUGCC [C3U G7U C8U A14U A16C G22U], the self-cleavage was determined as 0.15. For the variant GGUAGAGCUCAACACAGCGUGGCAAAUUGGCCGUGGCUAGACGGCC [C3U G27U U32C U43G], the self-cleavage stood at 0.08. Then GGUAGACCUCAACACAGCGUGGCAAAGUUGCUGUGUCUAGAUUGCA [C3U G7C G29U G36U C42U C46A], with 0.02; and GGUAGAACUCAACACAGCGCGGCAAUGUGGCUGUGGCUAUACUGCU [C3U G7A U20C A26U G40U C46U], with 0.06; and GGUAGAGCUCAACACAGCGUGUCAAUGUGGCUGUGGCAAGACUGCC [C3U G22U A26U U38A], with 0.19. The value for GGUAGAUCUCUACACUUCGUGGCAAAGUGGCAGUGGCUAGACUGCC [C3U G7U A11U A16U G17U U32A] was 0.01; that for GGUAGAGCUCAACACACCGUGUCAAAGUGGUUGUGGCUAGACUGCC [C3U G17C G22U C31U] was 0.01. The value for GGUAGAGCUCAACACAUCGUGUUAAAGUGGCUGUGGCUAGACUGCC [C3U G17U G22U C23U] was 0.22. Turning to GGUAGAGCUCAACACAUUGUGGCAAAGUGGCUGUGGCUAGACUGCC [C3U G17U C18U], the self-cleavage worked out at 0.09. Take GGUAGAGCUCAACACAGCGUGGCAAACUGGCUGUGGCUAGACUUCC [C3U G27C G44U]: the self-cleavage is 0.15. The value for GGUAGAGCUCAACACAACGUGGCGAAGUGGCUGUGGCUAGACUGCC [C3U G17A A24G] was 0.05; that for GGUAGAGCUCAACACAGCGUGGCAAAAUAGCUGUGGCUAGACUGCU [C3U G27A G29A C46U] was 0.61. As to GGUAGAGCUCAACACAGCGUCGCAAAGUGCCUGUGGCUAGACUGCC [C3U G21C G30C], the self-cleavage was 1.19.

As for GGUAGAGCUCAACACAUCGUGGCAAAGUGGCUGUUGUUAGACUGCC [C3U G17U G35U C37U], the self-cleavage came out at 0.05. The value for GGUAGAGCUCAACACAGCGUGGCAAAAUGGCUGUAGCUAGACUGCC [C3U G27A G35A] was 0.18; that for GGUAGAUCUCAACACAGCGUGGCAAAGUGGAUGUGGCUAGCCUGCG [C3U G7U C31A A41C C46G] was 0.01; that for GGUAGACCUCAACACAGCGUCGCCAAGUGGCUGUGGCUCGACUUCC [C3U G7C G21C A24C A39C G44U] was 0.06. GGUAGAACGCAACACAGCGUGGCAAAGUGGAUGUGGCUAGACUGCC [C3U G7A U9G C31A]: the self-cleavage stood at 0.11. Then GGUAGACCUCAGCACAGCUUGGCAAAGUGGCUGUGGCUAGACUGCC [C3U G7C A12G G19U], with 0.01; and GGUAGAGCUCAACACACCGUUGCAAAGUGGCUGUGGCGAGACUGCC [C3U G17C G21U U38G], with 0.01; and GGUAGACCUCAACACAGCAUGGCAAAGUGGCUGUGGCUAGACUGCC [C3U G7C G19A], with 0.07. Regarding GGUAGAGCUCAACACAGCGUGGCAAAUUGGUUAUGGCUAAACUGCC [C3U G27U C31U G33A G40A], the self-cleavage was found to be 0.08. Then GGUAGAGCUCAACACAGCGUAGCAAAGUGGCUGUGACUAGACUGCC [C3U G21A G36A], with 0.2; and GGUAGAACUCAACACAGCGUGGCAAAGUGGCUGUGGCUAGAUUGCC [C3U G7A C42U], with 0.07; and GGUAGAGCUCAACACAGCAUGGCAAAGUGGCUGUGGCUAGAGUGCC [C3U G19A C42G], with 0.2. Then GGUAGAGCUCAACACAGCAUGGCAACGUGGCUGUGGCUUGACUGCC [C3U G19A A26C A39U], with 0.12; and GGUAGAGCUCAACACACCGUGGCAAACUGGCUGUGGCUUGACUGUC [C3U G17C G27C A39U C45U], with 0.08; and GGUAGAGCUCAACACAGCGUUGCAAAGUGGCUGCGGCUAGACUGCC [C3U G21U U34C], with 0.39. The value for GGUAGAGCUCAACACACCGUGGCAAAGUGUCUGUGGCUAGACUGCC [C3U G17C G30U] was 0.08; that for GGUAGAUCCCGACCCAGCGUGGCAAAGUGGUUGUGGCUAGACUGCC [C3U G7U U9C A11G A14C C31U] was 0.01. For GGUAGAGCUCAACACAGCCUGGCGAAGUGGCUGUGGCUAGACUGCC [C3U G19C A24G], the self-cleavage turned out to be 0.07. Then GGUAGAGCUCAACACAGCGUGGCAAACCGGCCGCGGCUAGACUGCA [C3U G27C U28C U32C U34C C46A], with 0.01; and GGUAGAGCUCAACACAUCGUUGCAAAGUGGCUGUGGCGAGCCUGCC [C3U G17U G21U U38G A41C], with 0.02; and GGUAGAGCUCAACACAGCGUUGCAAAGUGGCUGUGGUUUGAGUGCC [C3U G21U C37U A39U C42G], with 0.01. The value for GGUAGAACUCAACAAAGCGUGGCAAACUGGCGGAGGCUAGACUGCC [C3U G7A C15A G27C U32G U34A] was 0.04; that for GGUAGAGCUCAACACAACGUGGCAAAUUGGCUGUGGCUAGACUGCC [C3U G17A G27U] was 0.07.

For GGUAGACCUCAACACAGCGUGGCAAAGUGUCUCUGGCUAGAUUUCC [C3U G7C G30U G33C C42U G44U], the self-cleavage is 0.15. The value for GGUAGAGCUCAACACAGCGUCGCUAAGUGGCUGUGGCUAGACUGCC [C3U G21C A24U] was 0.4; that for GGUAGAGCUCAACACAGCCUGGCAAAGUCGCUGUGGCUAGACUGCC [C3U G19C G29C] was 0.5; that for GGUAGAUCUCAACACAGCGUGCUAAAGUGGCUGUGGCUAGACUGCC [C3U G7U G22C C23U] was 0.08.
